Assay results published in the supplement of paper PMC12217912.
Some of the results follow. The full chains were built here from the parent and the listed change. Inactive controls read about 0.05.

B1: TEV protease; numbered along this chain (parent)
chain: MGESLFKGPRDYNPISSSICHLTNESDGHTTSLYGIGFGPFIITNKHLFRRNNGTLVVQSLHGVFKVKDTTTLQQHLVDGRDMIIIRMPKDFPPFPQKLKFREPQREERICLVTTNFQTKSMSSMVSDTSCTFPSGDGIFWKHWIQTKDGQCGSPLVSTRDGFIVGIHSASNFTNTNNYFTSVPKNFMELLTNQEAQQWVSGWRLNADSVLWGGHKVFMVKPEEPFQPVKEATQL

Variants of: B1
Assay: raw area under fraction-flipped curve 0-4 h after induction (AUC4h, not background-subtracted), DNA-recorder readout of cleavage of the substrate (dimensionless); higher = more cleavage of the substrate by the protease variant
Conditions: temperature: 34 °C; time window: 0-4 h after rhamnose induction
Procedure: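 In vivo DNA recorder in E. coli TOP10(DE3) ΔrhaA at 34 °C. Each TEVp single-site mutant (parent TEVp 0) is paired with a single-site variant of the 7-mer TEVs (canonical ENLYFQ|S). The substrate sits between flexible linkers in a Bxb1-sfGFP-TEVs-SsrA fusion, so cleavage stabilises Bxb1 and speeds flipping of a recombination array, read by NGS. The value is the raw area under the fraction-flipped curve over 0-4 h after rhamnose induction (AUC4h), with ≥20 reads per time point. It is not background-subtracted; inactive controls average about 0.047.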
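Also: Bxb1 expression induced with 0.2% (w/v) L-rhamnose at OD600 near 0.5, cultures sampled hourly, flipped fraction per protease–substrate barcode pair counted by paired-end Illumina sequencing.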

## R102V
  area with substrate ENAYFQS: 0.0329
  area with substrate ENDYFQS: 0.0438
  area with substrate ENEYFQS: 0.0546
  area with substrate ENFYFQS: 0.048
  area with substrate ENIYFQS: 0.0635
  area with substrate ENKYFQS: 0.0625
  area with substrate ENMYFQS: 0.0528
  area with substrate ENQYFQS: 0.0483
  area with substrate ENRYFQS: 0.0421
  area with substrate ENSYFQS: 0.0498
  area with substrate ENTYFQS: 0.0508
  area with substrate ENVYFQS: 0.0609
  area with substrate ENYYFQS: 0.0477

## Q105V
  area with substrate ENAYFQS: 0.0537
  area with substrate ENDYFQS: 0.0627
  area with substrate ENEYFQS: 0.071
  area with substrate ENGYFQS: 0.0579
  area with substrate ENNYFQS: 0.0575
  area with substrate ENQYFQS: 0.0564
  area with substrate ENRYFQS: 0.0555
  area with substrate ENSYFQS: 0.0457
  area with substrate ENWYFQS: 0.0536
  area with substrate ENYYFQS: 0.0418

## R106C
  area with substrate ENAYFQS: 0.0546
  area with substrate ENDYFQS: 0.0568
  area with substrate ENFYFQS: 0.0633
  area with substrate ENGYFQS: 0.0698
  area with substrate ENHYFQS: 0.0387
  area with substrate ENIYFQS: 0.0999
  area with substrate ENNYFQS: 0.0584
  area with substrate ENPYFQS: 0.061
  area with substrate ENQYFQS: 0.0463
  area with substrate ENRYFQS: 0.0611
  area with substrate ENSYFQS: 0.0447
  area with substrate ENVYFQS: 0.0726
  area with substrate ENYYFQS: 0.0486

## E107D
  area with substrate ENAYFQS: 0.0613
  area with substrate ENDYFQS: 0.067
  area with substrate ENEYFQS: 0.0349
  area with substrate ENFYFQS: 0.0589
  area with substrate ENGYFQS: 0.0552
  area with substrate ENHYFQS: 0.0684
  area with substrate ENIYFQS: 0.13
  area with substrate ENNYFQS: 0.0692
  area with substrate ENQYFQS: 0.0596
  area with substrate ENSYFQS: 0.0669
  area with substrate ENVYFQS: 0.0824
  area with substrate ENYYFQS: 0.0789

## E107Q
  area with substrate ENAYFQS: 0.0563
  area with substrate ENDYFQS: 0.0606
  area with substrate ENEYFQS: 0.0523
  area with substrate ENFYFQS: 0.0666
  area with substrate ENGYFQS: 0.0691
  area with substrate ENHYFQS: 0.0579
  area with substrate ENIYFQS: 0.0906
  area with substrate ENPYFQS: 0.0607
  area with substrate ENQYFQS: 0.0576
  area with substrate ENSYFQS: 0.0781
  area with substrate ENTYFQS: 0.0574
  area with substrate ENVYFQS: 0.0789

## E107T
  area with substrate ENAYFQS: 0.0693
  area with substrate ENCYFQS: 0.0765
  area with substrate ENEYFQS: 0.0458
  area with substrate ENQYFQS: 0.0583
  area with substrate ENSYFQS: 0.0526
  area with substrate ENTYFQS: 0.0479

## E107V
  area with substrate ENAYFQS: 0.0565
  area with substrate ENCYFQS: 0.0735
  area with substrate ENDYFQS: 0.0684
  area with substrate ENEYFQS: 0.0669
  area with substrate ENGYFQS: 0.0386
  area with substrate ENIYFQS: 0.105
  area with substrate ENNYFQS: 0.0572
  area with substrate ENPYFQS: 0.063
  area with substrate ENQYFQS: 0.0567
  area with substrate ENSYFQS: 0.0645
  area with substrate ENTYFQS: 0.0561
  area with substrate ENVYFQS: 0.0819
  area with substrate ENWYFQS: 0.0513
  area with substrate ENYYFQS: 0.0669

## E108K
  area with substrate ENAYFQS: 0.0604
  area with substrate ENEYFQS: 0.0515
  area with substrate ENFYFQS: 0.0609
  area with substrate ENGYFQS: 0.0588
  area with substrate ENHYFQS: 0.045
  area with substrate ENMYFQS: 0.0456
  area with substrate ENNYFQS: 0.055
  area with substrate ENQYFQS: 0.0577
  area with substrate ENSYFQS: 0.0547
  area with substrate ENVYFQS: 0.0424

## E108R
  area with substrate ENAYFQS: 0.0496
  area with substrate ENCYFQS: 0.0495
  area with substrate ENDYFQS: 0.0584
  area with substrate ENFYFQS: 0.0549
  area with substrate ENHYFQS: 0.0438
  area with substrate ENIYFQS: 0.0626
  area with substrate ENKYFQS: 0.06
  area with substrate ENNYFQS: 0.043
  area with substrate ENQYFQS: 0.0573
  area with substrate ENRYFQS: 0.0489
  area with substrate ENSYFQS: 0.0533
  area with substrate ENTYFQS: 0.0456
  area with substrate ENVYFQS: 0.0583

## E108W
  area with substrate ENAYFQS: 0.0519
  area with substrate ENCYFQS: 0.0581
  area with substrate ENDYFQS: 0.0619
  area with substrate ENEYFQS: 0.0534
  area with substrate ENFYFQS: 0.0602
  area with substrate ENGYFQS: 0.0573
  area with substrate ENIYFQS: 0.0522
  area with substrate ENKYFQS: 0.05
  area with substrate ENMYFQS: 0.0538
  area with substrate ENNYFQS: 0.0606
  area with substrate ENPYFQS: 0.0424
  area with substrate ENQYFQS: 0.0293
  area with substrate ENRYFQS: 0.0515
  area with substrate ENSYFQS: 0.0564
  area with substrate ENTYFQS: 0.0518
  area with substrate ENVYFQS: 0.0494
  area with substrate ENWYFQS: 0.0593
  area with substrate ENYYFQS: 0.07

## R109A
  area with substrate ENAYFQS: 0.0648
  area with substrate ENDYFQS: 0.053
  area with substrate ENHYFQS: 0.0311
  area with substrate ENPYFQS: 0.0674
  area with substrate ENQYFQS: 0.0713
  area with substrate ENRYFQS: 0.0654
  area with substrate ENSYFQS: 0.074

## R109N
  area with substrate ENAYFQS: 0.0642
  area with substrate ENCYFQS: 0.0648
  area with substrate ENDYFQS: 0.0581
  area with substrate ENEYFQS: 0.0546
  area with substrate ENMYFQS: 0.0818
  area with substrate ENQYFQS: 0.0914
  area with substrate ENTYFQS: 0.056
  area with substrate ENYYFQS: 0.0706

## R109S
  area with substrate ENAYFQS: 0.0461
  area with substrate ENCYFQS: 0.0625
  area with substrate ENDYFQS: 0.0647
  area with substrate ENFYFQS: 0.0468
  area with substrate ENGYFQS: 0.062
  area with substrate ENKYFQS: 0.0651
  area with substrate ENNYFQS: 0.0722
  area with substrate ENPYFQS: 0.0301
  area with substrate ENQYFQS: 0.0534
  area with substrate ENRYFQS: 0.0487
  area with substrate ENTYFQS: 0.0616
  area with substrate ENVYFQS: 0.0761
  area with substrate ENWYFQS: 0.0436
  area with substrate ENYYFQS: 0.0607

## I110W
  area with substrate ENAYFQS: 0.0502
  area with substrate ENCYFQS: 0.0537
  area with substrate ENEYFQS: 0.0544
  area with substrate ENFYFQS: 0.0679
  area with substrate ENHYFQS: 0.0614
  area with substrate ENNYFQS: 0.0526
  area with substrate ENQYFQS: 0.065
  area with substrate ENVYFQS: 0.0675
  area with substrate ENWYFQS: 0.0408
  area with substrate ENYYFQS: 0.0598

## C111E
  area with substrate ENAYFQS: 0.0706
  area with substrate ENCYFQS: 0.0257
  area with substrate ENDYFQS: 0.0483
  area with substrate ENFYFQS: 0.0535
  area with substrate ENIYFQS: 0.119
  area with substrate ENKYFQS: 0.0709
  area with substrate ENSYFQS: 0.0581
  area with substrate ENTYFQS: 0.0586

## C111Q
  area with substrate ENAYFQS: 0.0621
  area with substrate ENCYFQS: 0.0717
  area with substrate ENDYFQS: 0.0462
  area with substrate ENEYFQS: 0.0724
  area with substrate ENGYFQS: 0.0673
  area with substrate ENHYFQS: 0.045
  area with substrate ENQYFQS: 0.0622
  area with substrate ENSYFQS: 0.0579
  area with substrate ENWYFQS: 0.0522
